Results as given in a collection of fitness landscapes (doi:10.1126/science.1257360).
This is one part of the list.

B1: PhoQ; a variant is named by its letters at X, in order, P23837 (parent)
chain: MKKLLRLFFPLSLRVRFLLATAAVVLVLSLAYGMVALIGYSVSFDKTTFRLLRGESNLFYTLAKWENNKLHVELPENIDKQSPTMTLIYDENGQLLWAQRDVPWLMKMIQPDWLKSNGFHEIEADVNDTSLLLSGDHSIQQQLQEVREDDDDAEMTHSVAVNVYPATSRMPKLTIVVVDTIPVELKSSYMVWSWFIYVLSANLLLVIPLLWVAAWWSLRPIEALAKEVRELEEHNRELLNPATTRELTSLVRNLNRLLKSERERYDKYRTTLTDLTHSLKTPLXXLQXXLRSLRSEKMSVSDAEPVMLEQISRISQQIGYYLHRASMRGGTLLSRELHPVAPLLDNLTSALNKVYQRKGVNISLDISPEISFVGEQNDFVEVMGNVLDNACKYCLEFVEISARQTDEHLYIVVEDDGPGIPLSKREVIFDRGQRVDTLRPGQGVGLAVAREITEQYEGKIVAGESMLGGARMEVIFGRQHSAPKDE

Variants of: B1
Test: enrichment ratio after two sorts for PhoP signalling (ratio (wild type AVST 3.29)); higher = more functional
Settings: with PhoP (E. coli)
TVWA showed an enrichment ratio of at most 0.25.
In the case of VFAT, the enrichment ratio is reported as at most 0.25.
In the case of ITYK, the enrichment ratio is reported as at most 0.25.
HHAK gave an enrichment ratio of at most 0.25.
VWAW gave an enrichment ratio of at most 0.25.
In the case of PTCD, the enrichment ratio is reported as at most 0.25.
With VLFD the enrichment ratio was at most 0.25.
PNIS was tested, and the enrichment ratio was at most 0.25.
CSTT was tested, and the enrichment ratio was at most 0.25.
Work on ENIE yielded an enrichment ratio of at most 0.25.
Work on FNHT yielded an enrichment ratio of at most 0.25.
For DWLM, the enrichment ratio was at most 0.25.
With WGIR the enrichment ratio was at most 0.25.
In the case of ALSE, the enrichment ratio is reported as 1.27.
In the case of AIAQ, the enrichment ratio is reported as 7.27.
FAQK gave an enrichment ratio of at most 0.25.
Variant FEQQ has an enrichment ratio of at most 0.25.
For RQVN, the enrichment ratio was at most 0.25.
HDKI was tested, and the enrichment ratio was at most 0.25.
KLMM was tested, and the enrichment ratio was at most 0.25.
TILC was tested, and the enrichment ratio was 2.14.
Work on SCNP yielded an enrichment ratio of at most 0.25.
AMAL gave an enrichment ratio of 11.3.
With PVSW the enrichment ratio was at most 0.25.
Variant MTRV has an enrichment ratio of at most 0.25.
Work on HMAI yielded an enrichment ratio of at most 0.25.
For KFVT, the enrichment ratio was at most 0.25.
In the case of HHEG, the enrichment ratio is reported as at most 0.25.
Work on SYNS yielded an enrichment ratio of at most 0.25.
YAIH was tested, and the enrichment ratio was 0.272.
For WKDL, the enrichment ratio was at most 0.25.
Work on TYQW yielded an enrichment ratio of at most 0.25.
Variant VGGY has an enrichment ratio of at most 0.25.
AYAS showed an enrichment ratio of at most 0.25.
Variant QRQK has an enrichment ratio of at most 0.25.
For MQPG, the enrichment ratio was at most 0.25.
KHGH was tested, and the enrichment ratio was at most 0.25.
Variant RCGC has an enrichment ratio of at most 0.25.
FRPF was tested, and the enrichment ratio was at most 0.25.
KPPT was tested, and the enrichment ratio was at most 0.25.
LAHW was tested, and the enrichment ratio was at most 0.25.
Work on PAAG yielded an enrichment ratio of at most 0.25.
Variant WIFS has an enrichment ratio of at most 0.25.
Variant QHKV has an enrichment ratio of at most 0.25.
Work on QKAI yielded an enrichment ratio of at most 0.25.
Variant GMIA has an enrichment ratio of at most 0.25.
WDRE showed an enrichment ratio of at most 0.25.
In the case of IQSW, the enrichment ratio is reported as at most 0.25.
In the case of LSKD, the enrichment ratio is reported as at most 0.25.
Variant HKSV has an enrichment ratio of at most 0.25.
In the case of SSFI, the enrichment ratio is reported as 4.8.
For IIIR, the enrichment ratio was at most 0.25.
For SIMD, the enrichment ratio was 4.7.
Variant DAVI has an enrichment ratio of at most 0.25.
In the case of EIFM, the enrichment ratio is reported as at most 0.25.
For HKMC, the enrichment ratio was at most 0.25.
For DHFH, the enrichment ratio was at most 0.25.
Variant DMFQ has an enrichment ratio of at most 0.25.
With AFLD the enrichment ratio was at most 0.25.
Work on AHCP yielded an enrichment ratio of at most 0.25.
With KMTD the enrichment ratio was at most 0.25.
With FRKS the enrichment ratio was at most 0.25.
For GYCY, the enrichment ratio was at most 0.25.
SRLK gave an enrichment ratio of at most 0.25.
KLWS showed an enrichment ratio of at most 0.25.
For LPWR, the enrichment ratio was 0.317.
VEWF was tested, and the enrichment ratio was at most 0.25.
CSLA gave an enrichment ratio of 2.15.
FCVN gave an enrichment ratio of at most 0.25.
Work on RGFD yielded an enrichment ratio of at most 0.25.
Work on FPEC yielded an enrichment ratio of at most 0.25.
In the case of ASDS, the enrichment ratio is reported as at most 0.25.
In the case of IHPV, the enrichment ratio is reported as at most 0.25.
VGTP showed an enrichment ratio of at most 0.25.
For WSSA, the enrichment ratio was at most 0.25.
WFSE showed an enrichment ratio of at most 0.25.
HVFK gave an enrichment ratio of at most 0.25.
For WYQL, the enrichment ratio was at most 0.25.
For WQNP, the enrichment ratio was at most 0.25.
With GGVT the enrichment ratio was at most 0.25.
KLVN was tested, and the enrichment ratio was at most 0.25.
Work on STQH yielded an enrichment ratio of 4.53.
In the case of QHDA, the enrichment ratio is reported as 10.1.
PCHH showed an enrichment ratio of at most 0.25.
Work on VLLV yielded an enrichment ratio of 0.318.
Work on LWVR yielded an enrichment ratio of at most 0.25.
In the case of TGSP, the enrichment ratio is reported as at most 0.25.
MYPC gave an enrichment ratio of at most 0.25.
For QVCM, the enrichment ratio was at most 0.25.
Variant PSYD has an enrichment ratio of at most 0.25.
For MAPH, the enrichment ratio was at most 0.25.
Work on FTPP yielded an enrichment ratio of at most 0.25.
With NFTT the enrichment ratio was at most 0.25.
With LVEK the enrichment ratio was at most 0.25.
For TVFN, the enrichment ratio was 0.373.
STGL was tested, and the enrichment ratio was 9.48.
DKQW was tested, and the enrichment ratio was at most 0.25.
In the case of TGFK, the enrichment ratio is reported as at most 0.25.
In the case of SFNM, the enrichment ratio is reported as at most 0.25.
RHVM gave an enrichment ratio of at most 0.25.
With HWFD the enrichment ratio was at most 0.25.
IFGS showed an enrichment ratio of at most 0.25.
In the case of PSKC, the enrichment ratio is reported as at most 0.25.
Work on HTFI yielded an enrichment ratio of at most 0.25.
Variant LNST has an enrichment ratio of at most 0.25.
With KLYT the enrichment ratio was at most 0.25.
PGYL showed an enrichment ratio of at most 0.25.
Work on YENL yielded an enrichment ratio of at most 0.25.
IDAQ showed an enrichment ratio of at most 0.25.
In the case of RAEV, the enrichment ratio is reported as at most 0.25.
For PCCP, the enrichment ratio was at most 0.25.
Work on WFVD yielded an enrichment ratio of at most 0.25.
PHTH showed an enrichment ratio of at most 0.25.
In the case of DKED, the enrichment ratio is reported as at most 0.25.
RCWH showed an enrichment ratio of at most 0.25.
Variant QWIP has an enrichment ratio of at most 0.25.
With ADLH the enrichment ratio was 5.09.
Variant GGME has an enrichment ratio of at most 0.25.
Variant AIAF has an enrichment ratio of 12.4.
For NLVA, the enrichment ratio was at most 0.25.
Work on KSPE yielded an enrichment ratio of at most 0.25.
For VMMK, the enrichment ratio was at most 0.25.
Work on NTDK yielded an enrichment ratio of at most 0.25.
In the case of KFCG, the enrichment ratio is reported as at most 0.25.
In the case of YKRD, the enrichment ratio is reported as at most 0.25.
Variant RGKE has an enrichment ratio of at most 0.25.
Work on ISND yielded an enrichment ratio of at most 0.25.
In the case of QVSN, the enrichment ratio is reported as 4.87.
In the case of WWKA, the enrichment ratio is reported as at most 0.25.
PEYH gave an enrichment ratio of at most 0.25.
In the case of YLMS, the enrichment ratio is reported as at most 0.25.
In the case of KIFY, the enrichment ratio is reported as at most 0.25.
In the case of VQDD, the enrichment ratio is reported as at most 0.25.
With SDIE the enrichment ratio was at most 0.25.
Variant TFIV has an enrichment ratio of at most 0.25.
ELRF was tested, and the enrichment ratio was at most 0.25.
With HHEL the enrichment ratio was at most 0.25.
With LIDL the enrichment ratio was 1.03.
For LKIG, the enrichment ratio was at most 0.25.
Work on MDPS yielded an enrichment ratio of at most 0.25.
Variant PDIT has an enrichment ratio of at most 0.25.
Variant NYFE has an enrichment ratio of at most 0.25.
SDTI was tested, and the enrichment ratio was 0.595.
With WCYC the enrichment ratio was at most 0.25.
With SWPR the enrichment ratio was at most 0.25.
With PYMR the enrichment ratio was at most 0.25.
For QNRT, the enrichment ratio was at most 0.25.
In the case of KMNW, the enrichment ratio is reported as at most 0.25.
With LGNY the enrichment ratio was at most 0.25.
ASNN was tested, and the enrichment ratio was at most 0.25.
With LQGC the enrichment ratio was at most 0.25.
IRFS was tested, and the enrichment ratio was at most 0.25.
In the case of KVVP, the enrichment ratio is reported as at most 0.25.
